Drawing on PubChem BioAssay (NCATS), this text covers Potency for one compound.

For this test, the target named is Cytochrome P450 1A2 (Homo sapiens) (UniProt P05177). Kind of test: p450-cyp1a2 (AID 410). The settings on record: recombinant CYP1A2, luciferin-ME demethylation, luminescence. Summed up:
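Human CYP1A2 (20nM) demethylated Luciferin-ME at its Km (100uM) in 100mM KPO4. After 10 min compound preincubation, NADPH regeneration ran the reaction 60 min at room temperature. Luciferin was read by luminescence, normalized to 57 uM furafylline.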

Records with an inconclusive call do not appear. Calls follow the shape of the full dose curve. Not every entry of the source has a single result; some have several. They are shown here; other results are not. There may be further records. Values given together repeat one measurement across runs, samples, wells, individuals or studies. Signs of the kind (2×) say how often a value occurs here.
Potency is read from the fitted curve at half-maximal effect.

Chain of UniProt P05177 (P05177 whole entry, looked up): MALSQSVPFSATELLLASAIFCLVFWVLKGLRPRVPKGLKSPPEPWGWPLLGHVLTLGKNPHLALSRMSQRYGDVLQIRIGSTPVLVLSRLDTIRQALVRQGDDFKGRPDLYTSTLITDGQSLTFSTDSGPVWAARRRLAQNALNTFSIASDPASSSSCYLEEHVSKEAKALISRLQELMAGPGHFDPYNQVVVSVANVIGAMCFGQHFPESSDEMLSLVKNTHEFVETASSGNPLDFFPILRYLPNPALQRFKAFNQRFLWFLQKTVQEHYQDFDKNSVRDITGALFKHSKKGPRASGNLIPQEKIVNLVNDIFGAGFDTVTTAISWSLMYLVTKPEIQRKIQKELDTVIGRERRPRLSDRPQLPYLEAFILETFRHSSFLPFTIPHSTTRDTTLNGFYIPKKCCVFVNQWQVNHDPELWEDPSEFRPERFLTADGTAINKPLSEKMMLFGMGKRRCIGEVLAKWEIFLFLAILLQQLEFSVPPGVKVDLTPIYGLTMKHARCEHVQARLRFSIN

For `CC(C)NC[C@@H](O)COc1cccc2ccccc12`, the Potency result was “active: 1.58 µM, 1.26 µM, 251 nM, 631 nM, 200 nM (2×), 158 nM [separate samples]”.
